This experiment deals with mOKT3-activated CD3+ target cells. Kind of experiment: ADCC assay: 51Cr-labelled mOKT3-activated CD3+ T cells with autologous CD56+ NK effector cells. It counts as cell-based, human. The note with it: effector:target 25:1 or 10:1, 4 hours at 37° C., antibody 0.01-10 μg/mL. How it is done: To evaluate whether incubation of activated T cells with anti-CD200 antibodies containing a constant region mediating effector function (e.g. an IgG1 constant region) results in the killing of the T cells, T cells were activated and killing assays were set up as described below.
Human peripheral blood lymphocytes (PBLs) were obtained from normal healthy volunteers by density gradient centrifugation of heparinized whole blood using the Accuspin™ System. […] Eluted cells were washed, counted and resuspended in RPMI 1640 containing 5% heat-inactivated single donor serum, 2 mM L-glutamine, 10 mM Hepes and penicillin/streptomycin. […]
Human peripheral blood lymphocytes (PBLs) from the same individual were obtained as described above by density gradient centrifugation. […] Eluted cells were washed, counted and resuspended at 1.3×10^6 cells/mL in RPMI 1640 containing 5% heat-inactivated single donor serum, 2 mM L-glutamine, 10 mM Hepes and penicillin/streptomycin. […] At the end of the culture period, the cells were harvested, washed, counted and resuspended in serum-free RPMI containing 2 mM L-glutamine, 10 mM Hepes, 2×10^−5 M 2-mercaptoethanol and penicillin/streptomycin. […]

B1: hB7V3V2-G1: humanized anti-CD200 antibody capable of mediating effector function (SEQ ID NOS: 15-20) (antibody)
heavy: QVQLQQSGSELKKPGASVKISCKASGYSFTDYIILWVRQNPGKGLEWIGHIDPYYGSSNYNLKFKGRVTITADQSTTTAYMELSSLRSEDTAVYYCGRSKRDYFDYWGQGTTLTVSSASTKGPSVFPLAPSSKSTSGGTAALGCLVKDYFPEPVTVSWNSGALTSGVHTFPAVLQSSGLYSLSSVVTVPSSSLGTQTYICNVNHKPSNTKVDKRV[letters of human IgG1 Fc not shown]
light: DIQMTQSPSSLSASIGDRVTITCKASQDINSYLSWFQQKPGKAPKLLIYRANRLVDGVPSRFSGSGSGTDYTLTISSLQPEDFAVYYCLQYDEFPYTFGGGTKLEIKRTVAAPSVFIFPPSDEQLKSGTASVVCLLNNFYPREAKVQWKVDNALQSGNSQESVTEQDSKDSTYSLSSTLTLSKADYEKHKVYACEVTHQGLSSPVTKSFNRGEC
Consider B1, for which the “ADCC of activated T-cell targets (percent specific lysis)” value was “efficiently killed”. For the same molecule, where the note is “listed as V3V2-G1”, the “ADCC of activated T-cell targets (percent specific lysis)” value is recorded as “efficiently mediated ADCC”.

Source of the values: patent publication USRE46323E1, “Antibodies to OX-2/CD200 and uses thereof in inhibiting immune responses” (Alexion Pharmaceuticals, Inc., priority 2007, dated 2017).
